In all, about 310,000 compounds went through this assay and about 2,200 (0.71%) showed an effect of 50% or more. Effects have a minus sign here. The list shows a part of the results.
Target: human ether-à-go-go-related gene (hERG) potassium channel (human, UniProt Q12809)
Assay: primary screen, population patch clamp on CHO cells stably expressing hERG

Sequence of human ether-à-go-go-related gene (hERG) potassium channel (Q12809 whole entry, looked up): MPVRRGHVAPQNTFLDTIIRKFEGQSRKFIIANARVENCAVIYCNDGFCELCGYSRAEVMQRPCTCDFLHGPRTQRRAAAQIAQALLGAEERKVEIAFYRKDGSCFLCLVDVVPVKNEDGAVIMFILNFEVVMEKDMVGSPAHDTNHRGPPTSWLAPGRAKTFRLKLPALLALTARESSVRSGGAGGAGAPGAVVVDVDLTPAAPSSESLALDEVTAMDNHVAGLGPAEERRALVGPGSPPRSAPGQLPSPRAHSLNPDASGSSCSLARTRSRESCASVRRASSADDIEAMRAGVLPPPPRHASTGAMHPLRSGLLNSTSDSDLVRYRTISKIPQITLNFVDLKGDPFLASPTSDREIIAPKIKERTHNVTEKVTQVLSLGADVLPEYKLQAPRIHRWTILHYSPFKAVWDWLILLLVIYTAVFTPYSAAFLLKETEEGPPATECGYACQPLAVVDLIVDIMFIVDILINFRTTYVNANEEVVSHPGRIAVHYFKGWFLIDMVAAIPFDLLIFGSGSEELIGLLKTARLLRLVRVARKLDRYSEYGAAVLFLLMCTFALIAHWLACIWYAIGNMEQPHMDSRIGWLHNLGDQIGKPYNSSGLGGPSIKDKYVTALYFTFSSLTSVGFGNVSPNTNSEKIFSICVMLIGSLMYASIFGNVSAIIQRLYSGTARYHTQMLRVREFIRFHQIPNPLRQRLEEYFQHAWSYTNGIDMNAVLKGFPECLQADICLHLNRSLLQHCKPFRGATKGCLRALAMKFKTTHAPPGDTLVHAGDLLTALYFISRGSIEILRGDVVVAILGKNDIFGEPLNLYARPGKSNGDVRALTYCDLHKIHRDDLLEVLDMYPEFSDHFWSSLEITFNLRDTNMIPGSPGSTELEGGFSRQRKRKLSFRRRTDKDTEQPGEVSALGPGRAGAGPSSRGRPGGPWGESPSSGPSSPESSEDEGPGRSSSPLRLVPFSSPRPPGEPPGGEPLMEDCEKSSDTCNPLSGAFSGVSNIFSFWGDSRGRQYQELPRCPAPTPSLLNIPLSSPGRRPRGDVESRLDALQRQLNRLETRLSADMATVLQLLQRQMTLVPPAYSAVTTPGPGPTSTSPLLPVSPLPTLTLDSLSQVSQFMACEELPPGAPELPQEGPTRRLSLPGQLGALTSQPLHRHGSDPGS

Structure (SMILES)	hERG current change (%, negative = inhibition) at 1uM [%]
CCOc1ccc(NC(=O)Cn2nnc(-c3ccccc3F)n2)cc1	3.62
O=C(c1cccs1)c1cn(Cc2ccccc2Cl)c2ccccc12	18.1
COc1ccc(Br)c(C(=O)Nc2cccc(Cl)c2Cl)c1	6.46
CCN1C(=O)[C@H]2[C@@H](c3ccc(-c4ccc(Cl)c(Cl)c4)cc3)N[C@@](Cc3ccccc3)(C(=O)OC)[C@H]2C1=O.O=C(O)C(F)(F)F	7.01
CC(=O)c1c(C)[nH]c(C(=O)OC(C)C(=O)Nc2ccc(C)c(S(=O)(=O)N3CCOCC3)c2)c1C (stereo not drawn)	14.7
CCc1sc(NC(=O)CN2CCC(C(N)=O)CC2)nc1-c1ccccc1	12.4
Clc1ccc2c(c1)CNc1c(ncnc1N1CCOCC1)O2	5.3
O=C(COC(=O)Cc1n[nH]c(=O)c2ccccc12)Nc1ncc(Cl)cc1Cl	4.58
CCN(CC)CCn1nc2c3c(cccc3c1=O)-c1ccccc1-2	-50
CC(=O)N(CCCN(C)C)Cc1ccccn1	15.6
CC(=O)Nc1ccc(S(=O)(=O)N2CCN(CC3CC4C=CC3C4)CC2)cc1.O=C(O)C(=O)O (stereo not drawn)	12.9
CC1CCC(C(C)C)C(OC(=O)COC(=O)c2ccccc2N)C1 (stereo not drawn)	4.58
CCOC(=O)C1CCN(S(=O)(=O)CCNC(=O)c2ccccc2)CC1	6.46
CCOC(=O)c1c(NC(=O)c2ccc(C)cc2)sc2c1CC(C)(C)NC2(C)C	7.88
COc1ccccc1NC(=O)c1c(Nc2ccccc2C)sc(C(=O)Nc2cccc(Cl)c2)c1N	13.3
Cc1cc(NC(=O)c2cn(C3CCCCC3)c(=O)c3c2c2ccccc2n3C)no1	11.9
O=C(CC1COc2ccccc2O1)Nc1ccccn1 (stereo not drawn)	7.73
Cc1ccc(-n2nnnc2Sc2ccc(S(=O)(=O)NCCN(C)C)cc2[N+](=O)[O-])cc1	4.31
N#Cc1cnc2cc(-c3ccccc3)nn2c1N	8.75
CCCN(C(=O)CCl)C1=CCCCC1	26.6
CC(C(=O)N=c1sc2ccccc2n1C)N1C(=O)C2CC=CCC2C1=O (stereo not drawn)	-23.9
O=C(c1ccccc1)c1cn(CC(=O)N2CCCC2)c2ccccc12	-5.76

Structure (SMILES)	hERG current change (%, negative = inhibition) at 1uM [%]
COCc1nnc(NC(=O)CCCCCN2C(=O)c3ccccc3C2=O)s1	7.19
O=C(CSc1nc(-c2ccccc2)nn1C(=O)c1ccccc1)Nc1cccc([N+](=O)[O-])c1	8.2
COc1ccc(NC2CCCN(C(=O)COc3ccc(C)cc3)C2)cc1 (stereo not drawn)	1.09
COc1ccc(NC(=O)CSc2nnc3ccc(-c4ccccn4)nn23)cc1OC	13.8
O=C1C(Cc2cnc[nH]2)NC(=S)N1c1ccccc1 (stereo not drawn)	6.46
Cc1ccc2c(c1)-c1c(ssc1=S)C(C)(C)N2C(=O)CSc1nncn1C	-16.3
O=[N+]([O-])c1ccc(Cl)c(/C=N/n2c(-c3ccncc3)n[nH]c2=S)c1	10.8
Cc1cc(C(=O)N/N=C/c2ccc3ccccc3c2)n[nH]1	18.6
COC(=O)c1ccc(C(=O)Nc2nnc(-c3cccnc3)o2)cc1	10.6
COc1ccc(C2C(C#N)=C(N)N(N(C)C)C3=C2C(=O)CC(C)(C)C3)cc1 (stereo not drawn)	5.31
C/C(=N\N1CCN(c2ccccc2)CC1)c1ccco1	8.97
CCN(CC)c1ccc(/C=N/NS(=O)(=O)c2cccc([N+](=O)[O-])c2)cc1	14.1
COc1ccc(CN2[C@@H](CC(=O)O)c3ccccc3S2(=O)=O)cc1	20.4
O=C(CCc1nnc(CCCc2ccccc2)o1)NCC(F)(F)F	7.04
COc1cccc(CNC(=O)c2ccc(OCC(=O)N3CCOCC3)c(OC)c2)c1	16.8
COc1ccc(N2CCN(C(=O)CNC(=O)c3cccs3)CC2)cc1	26.2
COc1ccc(OCC(=O)Nc2ccc(N3CCN(Cc4ccccc4F)CC3)cc2)cc1	1.71
OC(COc1ccc2c(c1)CCC2)Cn1cnc2ccccc21 (stereo not drawn)	14.2
COc1ccc(C2CC(=O)C3=C(C2)Nc2ncnn2C3c2ccccc2C)c(OC)c1 (stereo not drawn)	-3.59
Cc1cc(C)cc(-n2c(C)cc(/C=N/NC(=O)CN(c3c(C)cccc3C)S(C)(=O)=O)c2C)c1	10.9
Cc1cc(NC(=O)c2ccc3c(c2)C(=O)N(C)C3=O)no1	16.4
O=C1C2CC=CCC2C(=O)N1Cc1ccccc1 (stereo not drawn)	8.16

Structure (SMILES)	hERG current change (%, negative = inhibition) at 1uM [%]
O=S(=O)(Nc1nc2ccccc2nc1NCC1CCCO1)c1cc(Cl)ccc1Cl (stereo not drawn)	-0.683
COc1ccc(CCn2ccc(O)c(Cc3ccc(Cl)cc3Cl)c2=O)cc1OC	7.11
CCC(Sc1nnc(-c2ccco2)n1C)C(=O)Nc1nnc(C)s1 (stereo not drawn)	10.8
NC(=O)C1CCN(c2ccc(C(F)(F)F)cn2)CC1	5.33
O=C(C1CCCN(S(=O)(=O)c2ccccc2)C1)N1CCN(c2ncccn2)CC1 (stereo not drawn)	-15.6
O=c1[nH]ncc(NCCc2ccccc2)c1Cl	14.6
CC(NC(=O)Cn1ncc(Cl)c(Cl)c1=O)C12CC3CC(CC(C3)C1)C2 (stereo not drawn)	15.8
CCOC(=O)/C(=N/Nc1ccc(Cl)cc1)S(=O)(=O)c1ccccc1	-0.828
Cc1cc(C)n(Cc2ccc(NC(=O)c3ccc(COc4ccccc4Br)cc3)cc2)n1	-8.42
CN1CCN(NS(=O)(=O)c2ccc(Cl)cc2)CC1	12.5
CCCn1cc(S(=O)(=O)c2ccc(C)cc2)c(=O)c2cc(OC)c(OC)cc21	7.98
O=C(COc1ccc(Cl)cc1)Nc1ccc2c(c1)C(=O)NC2=O	14.5
CCCc1c(C)c2cc(C)ccc2[nH]c1=O	-3.14
COC(=O)c1cc(C)nc(Sc2ccccc2NC(C)=O)n1	12
CCOC(=O)C1(C)NC(c2ccc(OC)c(OC)c2)C2C(=O)N(CC)C(=O)C21 (stereo not drawn)	4.83
O=C1NN=C(c2ccc(Cl)cc2)CC1c1cccc(Cl)c1 (stereo not drawn)	-2.01
COC(=O)c1sccc1NC(=S)N1CCN(C)CC1	12.2
O=C(O)C(=O)O.c1ccc(CN2CCN(C(c3ccccc3)c3ccccc3)CC2)cc1	10.4
CC(=O)Nc1nnc(SCc2cccc(F)c2)s1	5.89
CC1CCC2(CC1)Nc1ccccc1C(=O)N2c1ccccc1 (stereo not drawn)	9.74
CCOc1nc2ccccc2nc1C	7.52
COc1ccccc1C(=O)NCCC(=O)NCc1ccncc1	9.55

Structure (SMILES)	hERG current change (%, negative = inhibition) at 1uM [%]
O=S(=O)(c1ccc(NC(=S)Nc2ccc3c(c2)OCO3)cc1)N1CCOCC1	15.7
Cc1c(NC(=O)Nc2c(Cl)cccc2Cl)c(=O)n(-c2ccccc2)n1C	6.17
NS(=O)(=O)c1ccc(NS(=O)(=O)/C=C/c2ccccc2)cc1	13
COc1ccc(-n2c(CN3CCC(C(N)=O)CC3)nc3ccc([N+](=O)[O-])cc3c2=O)c(OC)c1	3.9
O=C1CCC(C(=O)NCc2ccccc2)N1 (stereo not drawn)	11.9
CCOC(=O)c1ccc(NS(=O)(=O)c2c(C)nc3sccn3c2=O)cc1	6.59
CCCNC(=O)c1cc2nc(-c3ccccc3)cc(C(F)(F)F)n2n1	8.49
CCOc1ccc(OCCC(=O)OCC(=O)Nc2cc(S(=O)(=O)N3CCOCC3)ccc2C)cc1	11.7
Cc1ccc(C(=O)Nc2ccc3nccnc3c2)cc1	13.2
O=C(CN1C(=O)NC2(CCCCC2)C1=O)N1CCN(S(=O)(=O)c2cccc([N+](=O)[O-])c2)CC1	9.25
N#Cc1ccccc1NC(=O)Nc1cccs1	18
Cn1c(Cn2cnc([N+](=O)[O-])n2)nnc1SCC(=O)Nc1ccc(Br)cc1	10.6
O=C(Nc1ccc(Cl)cc1)C1CCCN1C(=O)NCc1ccccc1 (stereo not drawn)	8.51
CC1(c2nnc(Cc3ccccc3)o2)CC(c2ccc(F)cc2)=NO1 (stereo not drawn)	6.99
CCCc1c(C(=O)N/N=C/c2ccccc2OCc2ccc(F)cc2)nnn1-c1nonc1N	12.4
O=C(NCC(c1cccs1)N1CCOCC1)c1ccc(Cl)c(S(=O)(=O)N2CCOCC2)c1 (stereo not drawn)	-1.11
Cc1ccc(S(=O)(=O)NCc2nc3ccccc3[nH]2)cc1	9.38
COc1ccc2cc(C(N)=O)c(=Nc3ccc(C)cc3)oc2c1	8.43
CCCn1c(SCC(=O)N2CCc3ccccc3C2)nc2c1c(=O)n(C)c(=O)n2C	-11.4
COc1cccc(S(=O)(=O)NCc2ccc(C(=O)Nc3ccc(Cl)c(Cl)c3)cc2)c1	-4.02
COC(=O)[C@H](C)NC(=O)NC1CCCc2ccccc21 (stereo partly drawn)	-1.13

— article PMC4336329 (PLoS ONE, 2015)
